Reference: patent US11618753B2 (priority 2018, dated 2023)

Test system: MLKL phosphorylation, HT29-L23 human colorectal adenocarcinoma cells
Experiment: cells
Conditions: read-out: pMLKL HCS Cell Assay (IC50, uM)

Row | Structure (SMILES) | IC50
1 | Cc1cc(F)c(-c2cc(C(F)(F)F)c3c(N)ncnn23)cc1C(=O)N[C@@H]1CN(C(=O)c2cc(F)c(F)cc2Cl)C[C@@H]1F [Example 808, 5-[4-amino-5-(trifluoromethyl)pyrrolo[2,1-f][1,2,4]triazin-7-yl]-N-[(3R,4S)-1-(2-chloro-4,5-difluorobenzoyl)-4-fluoropyrrolidin-3-yl]-4-fluoro-2-methylbenzamide] | 0.025 µM
2 | Cc1cc(F)c(-c2cc(C(F)(F)F)c3c(N)ncnn23)cc1C(=O)N[C@@H]1CN(C(=O)c2ccc(F)cc2Cl)C[C@@H]1F [Example 809, 5-[4-amino-5-(trifluoromethyl)pyrrolo[2,1-f][1,2,4]triazin-7-yl]-N-[(3R,4S)-1-(2-chloro-4-fluorobenzoyl)-4-fluoropyrrolidin-3-yl]-4-fluoro-2-methylbenzamide] | 0.015 µM
3 | Cc1cc(F)c(-c2cc(C(F)(F)F)c3c(N)ncnn23)cc1C(=O)N[C@@H]1CN(C(=O)c2cccc(F)c2Cl)C[C@@H]1F [Example 810, 5-[4-amino-5-(trifluoromethyl)pyrrolo[2,1-f][1,2,4]triazin-7-yl]-N-[(3R,4S)-1-(2-chloro-3-fluorobenzoyl)-4-fluoropyrrolidin-3-yl]-4-fluoro-2-methylbenzamide] | 0.0039 µM
4 | Cc1cc(F)c(-c2cc(C(F)(F)F)c3c(N)ncnn23)cc1C(=O)N[C@@H]1CN(C(=O)c2cc(C#N)ccc2F)C[C@@H]1F [Example 811, 5-[4-amino-5-(trifluoromethyl)pyrrolo[2,1-f][1,2,4]triazin-7-yl]-N-[(3R,4S)-1-(5-cyano-2-fluorobenzoyl)-4-fluoropyrrolidin-3-yl]-4-fluoro-2-methylbenzamide] | 0.023 µM
5 | Cc1nc(C(=O)N2C[C@H](F)[C@H](NC(=O)c3cc(-c4cc(C(F)(F)F)c5c(N)ncnn45)c(F)cc3C)C2)cs1 [Example 812, 5-[4-amino-5-(trifluoromethyl)pyrrolo[2,1-f][1,2,4]triazin-7-yl]-4-fluoro-N-[(3R,4S)-4-fluoro-1-(2-methyl-1,3-thiazole-4-carbonyl)pyrrolidin-3-yl]-2-methylbenzamide] | 0.027 µM
6 | Cc1csc(C(=O)N2C[C@H](F)[C@H](NC(=O)c3cc(-c4cc(C(F)(F)F)c5c(N)ncnn45)c(F)cc3C)C2)n1 [Example 813, 5-[4-amino-5-(trifluoromethyl)pyrrolo[2,1-f][1,2,4]triazin-7-yl]-4-fluoro-N-[(3R,4S)-4-fluoro-1-(4-methyl-1,3-thiazole-2-carbonyl)pyrrolidin-3-yl]-2-methylbenzamide] | 0.042 µM
7 | Cc1cc(F)c(-c2cc(C(F)(F)F)c3c(N)ncnn23)cc1C(=O)N[C@@H]1CN(C(=O)c2ccc(F)c(F)c2)C[C@@H]1F [Example 814, 5-[4-amino-5-(trifluoromethyl)pyrrolo[2,1-f][1,2,4]triazin-7-yl]-N-[(3R,4S)-1-(3,4-difluorobenzoyl)-4-fluoropyrrolidin-3-yl]-4-fluoro-2-methylbenzamide] | 0.0043 µM
8 | Cc1cc(F)c(-c2cc(C(F)(F)F)c3c(N)ncnn23)cc1C(=O)N[C@@H]1CN(C(=O)c2cc(F)c(F)cc2F)C[C@@H]1F [Example 815, 5-[4-amino-5-(trifluoromethyl)pyrrolo[2,1-f][1,2,4]triazin-7-yl]-4-fluoro-N-[(3R,4S)-4-fluoro-1-(2,4,5-trifluorobenzoyl)pyrrolidin-3-yl]-2-methylbenzamide] | 0.011 µM
9 | Cc1cc(F)c(-c2cc(C(F)(F)F)c3c(N)ncnn23)cc1C(=O)N[C@@H]1CN(C(=O)c2cc(F)cc(F)c2)C[C@@H]1F [Example 816, 5-[4-amino-5-(trifluoromethyl)pyrrolo[2,1-f][1,2,4]triazin-7-yl]-N-[(3R,4S)-1-(3,5-difluorobenzoyl)-4-fluoropyrrolidin-3-yl]-4-fluoro-2-methylbenzamide] | 0.028 µM
10 | Cc1cc(F)c(-c2cc(C(F)(F)F)c3c(N)ncnn23)cc1C(=O)N[C@@H]1CN(C(=O)c2ncccc2F)C[C@@H]1F [Example 817, 5-[4-amino-5-(trifluoromethyl)pyrrolo[2,1-f][1,2,4]triazin-7-yl]-4-fluoro-N-[(3R,4S)-4-fluoro-1-(3-fluoropyridine-2-carbonyl)pyrrolidin-3-yl]-2-methylbenzamide] | 0.022 µM
11 | Cc1cc(F)c(-c2cc(C(F)(F)F)c3c(N)ncnn23)cc1C(=O)N[C@@H]1CN(C(=O)c2cnccc2Cl)C[C@@H]1F [Example 818, 5-[4-amino-5-(trifluoromethyl)pyrrolo[2,1-f][1,2,4]triazin-7-yl]-N-[(3R,4S)-1-(4-chloropyridine-3-carbonyl)-4-fluoropyrrolidin-3-yl]-4-fluoro-2-methylbenzamide] | 0.0087 µM
12 | Cc1cc(F)c(-c2cc(C(F)(F)F)c3c(N)ncnn23)cc1C(=O)N[C@@H]1CN(C(=O)c2ncc(F)cc2F)C[C@@H]1F [Example 819, 5-[4-amino-5-(trifluoromethyl)pyrrolo[2,1-f][1,2,4]triazin-7-yl]-N-[(3R,4S)-1-(3,5-difluoropyridine-2-carbonyl)-4-fluoropyrrolidin-3-yl]-4-fluoro-2-methylbenzamide] | 0.014 µM
13 | Cc1cc(C(=O)N2C[C@H](F)[C@H](NC(=O)c3cc(-c4cc(C(F)(F)F)c5c(N)ncnn45)c(F)cc3C)C2)c(F)cn1 [Example 820, 5-[4-amino-5-(trifluoromethyl)pyrrolo[2,1-f][1,2,4]triazin-7-yl]-4-fluoro-N-[(3R,4S)-4-fluoro-1-(5-fluoro-2-methylpyridine-4-carbonyl)pyrrolidin-3-yl]-2-methylbenzamide] | 0.016 µM
14 | Cc1cc(F)c(-c2cc(C(F)(F)F)c3c(N)ncnn23)cc1C(=O)N[C@@H]1CN(C(=O)c2ccc(F)cn2)C[C@@H]1F [Example 821, 5-[4-amino-5-(trifluoromethyl)pyrrolo[2,1-f][1,2,4]triazin-7-yl]-4-fluoro-N-[(3R,4S)-4-fluoro-1-(5-fluoropyridine-2-carbonyl)pyrrolidin-3-yl]-2-methylbenzamide] | 0.0018 µM
15 | Cc1cc(F)c(-c2cc(C(F)(F)F)c3c(N)ncnn23)cc1C(=O)N[C@@H]1CN(C(=O)c2cc(F)ccn2)C[C@@H]1F [Example 822, 5-[4-amino-5-(trifluoromethyl)pyrrolo[2,1-f][1,2,4]triazin-7-yl]-4-fluoro-N-[(3R,4S)-4-fluoro-1-(4-fluoropyridine-2-carbonyl)pyrrolidin-3-yl]-2-methylbenzamide] | 0.011 µM
16 | Cc1cc(F)c(-c2cc(C(F)(F)F)c3c(N)ncnn23)cc1C(=O)N[C@@H]1CN(C(=O)c2c(F)cc(F)cc2F)C[C@@H]1F [Example 823, 5-[4-amino-5-(trifluoromethyl)pyrrolo[2,1-f][1,2,4]triazin-7-yl]-4-fluoro-N-[(3R,4S)-4-fluoro-1-(2,4,6-trifluorobenzoyl)pyrrolidin-3-yl]-2-methylbenzamide] | 0.0086 µM
17 | Cc1cc(F)c(-c2cc(C(F)(F)F)c3c(N)ncnn23)cc1C(=O)N[C@@H]1CN(C(=O)c2c(F)cccc2Cl)C[C@@H]1F [Example 825, 5-[4-amino-5-(trifluoromethyl)pyrrolo[2,1-f][1,2,4]triazin-7-yl]-N-[(3R,4S)-1-(2-chloro-6-fluorobenzoyl)-4-fluoropyrrolidin-3-yl]-4-fluoro-2-methylbenzamide] | 0.0083 µM
18 | Cc1cc(F)c(-c2cc(C(F)(F)F)c3c(N)ncnn23)cc1C(=O)N[C@@H]1CN(C(=O)c2cccc(F)c2)C[C@@H]1F [Example 826, 5-[4-amino-5-(trifluoromethyl)pyrrolo[2,1-f][1,2,4]triazin-7-yl]-4-fluoro-N-[(3R,4S)-4-fluoro-1-(3-fluorobenzoyl)pyrrolidin-3-yl]-2-methylbenzamide] | 0.0024 µM
